Screen size: about 39,000 compounds; about 220 (0.56%) showed activity. The list shows a part of the results.
What follows are molecules tested on Escherichia coli K-12 BW25113 (assay: relative growth (OD600 normalised to plate interquartile mean) (fraction); higher = less growth inhibition, active = 0.2 or less). Details: 50 µM; LB; incubation time: overnight (16-24 h).
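Note: static incubation at 37 °C against the wild-type strain, values averaged over two biological replicates.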

Compound | relative growth
C[C@H]1CN([C@@H](C)CO)C(=O)c2cc(NS(=O)(=O)c3ccc(Cl)cc3)ccc2O[C@@H]1CN(C)S(=O)(=O)c1cn(C)cn1 | inactive: 1.01
C[C@@H]1CN([C@@H](C)CO)C(=O)Cc2cc(NS(=O)(=O)c3ccc(Cl)cc3)ccc2O[C@H]1CN(C)Cc1ccc(C(F)(F)F)cc1 | inactive: 1.03
C[C@H]1CN([C@@H](C)CO)C(=O)c2cc(NS(=O)(=O)c3ccc(Cl)cc3)ccc2O[C@H]1CN(C)Cc1ccc(Cl)c(Cl)c1 | inactive: 1
O=C(C[C@@H]1C[C@@H]2c3cc(NC(=O)C4CCOCC4)ccc3O[C@@H]2[C@H](CO)O1)NCCN1CCCCC1 | inactive: 0.996
C[C@H]1CN([C@@H](C)CO)S(=O)(=O)c2ccc(Br)cc2O[C@@H]1CN(C)C(=O)Nc1ccc2c(c1)OCO2 | inactive: 0.954
C[C@H]1CN([C@@H](C)CO)C(=O)c2cccc(NC(=O)c3ccc(-c4nccs4)cc3)c2O[C@@H]1CN(C)C(=O)Nc1ccc2c(c1)OCO2 | inactive: 1
C[N+](C)(C)CCO.[Cl-] | inactive: 1.06
C[C@@H]1CCCCO[C@@H](CN(C)CC2CCCCC2)[C@H](C)CN([C@H](C)CO)C(=O)c2cc(NC(=O)CCC(F)(F)F)ccc2O1 | inactive: 0.995
C[C@@H]1CCCCO[C@H](CN(C)Cc2ccc3c(c2)OCO3)[C@@H](C)CN([C@H](C)CO)C(=O)c2cc(NC(=O)Cc3ccccc3)ccc2O1 | inactive: 1.04
C[C@@H]1CN([C@@H](C)CO)C(=O)c2cc(NC(=O)NC3CCCCC3)ccc2O[C@@H](C)CCCCO[C@H]1CN(C)C(=O)c1ccccc1 | inactive: 1.02
COc1ccc(S(=O)(=O)N(C)C[C@H]2Oc3ccc(NC(=O)NC(C)C)cc3CC(=O)N([C@H](C)CO)C[C@H]2C)cc1 | inactive: 1.01
Cc1ccc(S(=O)(=O)Nc2ccc3c(c2)CC(=O)N([C@H](C)CO)C[C@H](C)[C@@H](CN(C)S(=O)(=O)c2ccccc2)O3)cc1 | inactive: 0.979
C[C@H](CO)N1C[C@H](C)[C@H](CN(C)S(=O)(=O)c2cn(C)cn2)Oc2ncc(Br)cc2C1=O | inactive: 0.992
C[C@@H]1CN([C@@H](C)CO)C(=O)c2cccc(NC(=O)c3nc4ccccc4s3)c2O[C@@H]1CN(C)Cc1ccc(Cl)c(Cl)c1 | inactive: 1.01
O=C(C[C@@H]1C[C@@H]2c3cc(NC(=O)NC4CCCC4)ccc3O[C@@H]2[C@@H](CO)O1)NCc1ccc(-c2ccccc2)cc1 | inactive: 1.02
Cc1ccc(S(=O)(=O)N2C[C@H](O)COC[C@H]3O[C@@H](CC(=O)NCc4ccc5c(c4)OCO5)CC[C@@H]32)cc1 | inactive: 1
C[C@@H]1CCCCO[C@@H](CN(C)S(=O)(=O)c2ccc(Cl)cc2)[C@@H](C)CN([C@H](C)CO)C(=O)c2cc(NC(=O)Nc3ccc(F)cc3)ccc2O1 | inactive: 1.02
O=c1[nH]cnc2[nH]ncc12 | inactive: 1.12
COc1ccc(CNC(=O)c2cc3c(c(-c4cccc(-c5ccc(C#N)cc5)c4)n2)[C@H](CCO)N([S@@](=O)C(C)(C)C)C3)cc1 | inactive: 0.931
CCn1cnc2c(=O)[nH][nH]c(=O)c21 | inactive: 1.03

Compound | relative growth
COc1cccc(CN2C[C@@H](C)[C@H](OC)CN(C)C(=O)c3ccc(NS(=O)(=O)c4cn(C)cn4)cc3OC[C@H]2C)c1 | inactive: 1
CN1C(=O)c2cc(NC(=O)c3ccc(F)c(F)c3)ccc2OC[C@@H]2O[C@@H](CC(=O)N3CCOCC3)CC[C@@H]21 | inactive: 0.984
O=C(C[C@@H]1C[C@@H]2c3cc(NS(=O)(=O)c4ccc(F)cc4)ccc3O[C@@H]2[C@@H](CO)O1)NCc1ccccc1 | inactive: 1.01
CC(C)(C)[S@@](=O)N1Cc2cc(C(=O)NCc3ccccc3F)nc(-c3cccc(-c4cccnc4)c3)c2[C@H]1CCO | inactive: 0.992
COc1ccc(NC(=O)Nc2ccc3c(c2)C(=O)N([C@H](C)CO)C[C@H](C)[C@@H](CN(C)Cc2ccc(-c4ccccc4)cc2)O3)cc1 | inactive: 1.03
C[N+](C)(C)CCCCNC(=O)[C@@H]1C[C@@H]2C(=O)NCC(=O)N2[C@@H]1c1ccc(O)cc1 | inactive: 1.02
C[C@@H]1CCCCO[C@@H](CN(C)C(=O)Nc2ccc(F)cc2)[C@H](C)CN([C@@H](C)CO)C(=O)c2cc(NC(=O)Nc3ccc(F)cc3)ccc2O1 | inactive: 1.02
C[C@@H]1CN([C@H](C)CO)C(=O)c2cccc(NC(=O)c3ccc(-c4nccs4)cc3)c2O[C@@H]1CN(C)C(=O)Nc1ccc(C(F)(F)F)cc1 | inactive: 0.975
Cc1noc(C)c1NC(=O)N(C)C[C@@H]1Oc2c(NC(=O)Nc3cccc4ccccc34)cccc2C(=O)N([C@H](C)CO)C[C@H]1C | inactive: 0.997
C[C@H](CO)N1C[C@H](C)[C@H](CN(C)S(=O)(=O)c2cn(C)cn2)Oc2ncc(C#Cc3ccccc3)cc2C1=O | inactive: 1.05
O=C(Oc1cccc2cccnc12)c1ccccc1 | inactive: 0.894
Cc1noc(C)c1S(=O)(=O)N(C)C[C@H]1Oc2ccc(NS(=O)(=O)c3ccccc3)cc2CC(=O)N([C@@H](C)CO)C[C@H]1C | inactive: 0.98
CC(=O)N1[C@H](Cn2cncn2)C[C@H]2CN(C(N)=O)CC[C@H]21 | inactive: 0.977
C[C@H]1CCCCO[C@@H](CN(C)CC2CC2)[C@@H](C)CN([C@@H](C)CO)C(=O)c2cc(NC(=O)c3ccccc3)ccc2O1 | inactive: 0.981
COc1cc2c(cc1O)[C@H](c1ccc(CN3CCCC3)cc1)N(Cc1sc3ccccc3c1Cl)CC2 | inactive: 0.974
C[C@H]1CN([C@@H](C)CO)C(=O)c2cc(NC(=O)CCCN(C)C)ccc2O[C@H]1CN(C)S(=O)(=O)c1cn(C)cn1 | inactive: 0.893
CCc1cc(=O)oc2c(C)c(O[C@@H]3O[C@H](CO)[C@@H](O)[C@H](O)[C@H]3O)ccc12 | inactive: 0.98
C[C@H]1CN([C@@H](C)CO)C(=O)c2cccc(NC(=O)C3CCCCC3)c2O[C@H]1CN(C)Cc1ccc(Oc2ccccc2)cc1 | inactive: 0.978
CO[C@@H]1CN(C)C(=O)c2cc(NC(=O)Nc3cccc(Cl)c3)ccc2OC[C@H](C)N(C(=O)Nc2c(C)noc2C)C[C@@H]1C | inactive: 1.02
Cc1cccc(S(=O)(=O)N2C[C@H](O)COC[C@H]3O[C@@H](CC(=O)NCc4ccncn4)CC[C@@H]32)c1 | inactive: 0.999

Compound | relative growth
C[C@H]1CCCCO[C@@H](CN(C)Cc2ccc(Cl)c(Cl)c2)[C@@H](C)CN([C@@H](C)CO)C(=O)c2cc(NC(=O)Nc3ccc(C(F)(F)F)cc3)ccc2O1 | inactive: 1
Cc1noc(C)c1S(=O)(=O)Nc1ccc2c(c1)C(=O)N([C@@H](C)CO)C[C@@H](C)[C@H](CN(C)Cc1ccc(C(F)(F)F)cc1)OCCCC[C@@H](C)O2 | inactive: 0.958
C[C@@H]1CCCCO[C@@H](CN(C)C(=O)Nc2ccc3c(c2)OCO3)[C@H](C)CN([C@H](C)CO)C(=O)c2cc(NC(=O)c3ccccc3)ccc2O1 | inactive: 1.01
Cc1noc(C)c1NC(=O)Nc1ccc2c(c1)C(=O)N([C@@H](C)CO)C[C@@H](C)[C@H](CN(C)CC1CC1)OCCCC[C@@H](C)O2 | inactive: 0.816
C[C@H](CO)N1C[C@H](C)[C@H](CN(C)S(=O)(=O)c2ccccc2)Oc2ncc(-c3ccccc3)cc2C1=O | inactive: 0.997
CCS(=O)(=O)Nc1ccc2c(c1)C(=O)N(C)[C@@H]1CC[C@@H](CC(=O)NCCOC)O[C@H]1CO2 | inactive: 1.01
C[C@@H]1CCCCO[C@H](CN(C)S(=O)(=O)c2ccccc2)[C@@H](C)CN([C@H](C)CO)C(=O)c2cc(NC(=O)Nc3cccc4ccccc34)ccc2O1 | inactive: 1.01
C[C@H]1CN([C@@H](C)CO)C(=O)c2cc(NS(=O)(=O)c3cn(C)cn3)ccc2O[C@H]1CN(C)Cc1ccccc1 | inactive: 0.966
C[C@@H]1CN([C@@H](C)CO)C(=O)c2cc(NC(=O)Cn3cnnn3)ccc2O[C@H]1CN(C)Cc1ccc(-c2ccccc2)cc1 | inactive: 0.909
COC(=O)[C@H](Cc1ccccc1)N1CC2=CCCC=C[C@H]2[C@@H]1[C@@H](O)CCn1cc(-c2ccc(C(=O)NO)s2)nn1 | inactive: 0.993
CC(C)NC(=O)N(C)C[C@H]1Oc2ccc(NC(=O)NC3CCCCC3)cc2C(=O)N([C@@H](C)CO)C[C@H]1C | inactive: 0.973
Cc1ccc(S(=O)(=O)N(C)C[C@H]2OCCCC[C@@H](C)Oc3ccc(NC(=O)Nc4ccccc4)cc3C(=O)N([C@@H](C)CO)C[C@@H]2C)cc1 | inactive: 1.04
COc1ccc2c3c([nH]c2c1)[C@H](CO)N(Cc1ccc(cc1)Cl)C[C@]13CCN(CC1)Cc1ccccc1 | inactive: 0.995
C[C@@H]1CCCCO[C@H](CN(C)Cc2ccc(Cl)c(Cl)c2)[C@H](C)CN([C@@H](C)CO)C(=O)c2cc(NS(C)(=O)=O)ccc2O1 | inactive: 0.979
O=C1CCCN1C1CCNCC1 | inactive: 1.01
C[C@H](CO)N1C[C@H](C)[C@H](CN(C)S(=O)(=O)c2cccs2)OCCCC[C@H](C)Oc2ccc(NC(=O)Nc3cccc4ccccc34)cc2C1=O | inactive: 1.04
CC(C)NC(=O)N[C@@H]1C=C[C@H](CC(=O)NCCN2CCCC2)O[C@@H]1CO | inactive: 0.924
CCCNC(=O)N(C)C[C@@H]1Oc2cc(-c3ccc(C)cc3)ccc2S(=O)(=O)N([C@@H](C)CO)C[C@H]1C | inactive: 1.02
CC(C)=CCOc1cc2oc(=O)ccc2cc1O | inactive: 1.05

Reference: the supplement of paper PMC9446081
